B1: LINE1-mini (parent)
chain: GGCAGAGCUCAACACAGCGUGGCAAAGUGGCUGUGGCUAGACUGCC

Read counts are not given, so values of variants with three or more changes are uncertain.

The series covers variants of B1. Description: self-cleavage, relative activity (ratio to wild type); higher = more cleavage; in vitro, sequencing; the parent is a self-cleaving ribozyme.
On to C23U A25U U43C C46G, for which the self-cleavage worked out at 0.04.

As to C23A A24G A26C, the self-cleavage came out at 1.37.

C23G C37A G44A: the self-cleavage was 0.12.

In the case of G22C G29C G36C, the self-cleavage came to 0.16.

For the variant G22U C23A C45U, the self-cleavage stood at 1.81.

Turning to G22C A25G U38G, the self-cleavage came to 0.01.

For the variant C23A U28A C37U A41U, the self-cleavage worked out at 0.04.

As for G22C U28C C37A, the self-cleavage is 0.03.

G22C U28C C37U: the self-cleavage came to 0.02.

As for C23A U28G G33U C45G, the self-cleavage is 0.05.

G22C G29A U32C C46U: the self-cleavage was 0.04.

Take C23A G40U C46U: the self-cleavage stood at 0.03.

On to C23U C31A G40C C42G G44C, for which the self-cleavage came to 0.01.

On to G22U A41G C45G, for which the self-cleavage was 0.02.

Turning to C23U A24C C37A G40U U43G, the self-cleavage was determined as 0.04.

Consider C23G G35C G36A, for which the self-cleavage was found to be 0.11.

Take G22U U32G C45U: the self-cleavage worked out at 0.23.

C23G A24C G33C: the self-cleavage was found to be 0.01.

On to C23G G33A G36U, for which the self-cleavage was 0.02.

In the case of G22U A25U C37U, the self-cleavage was found to be 0.14.

For the variant G22C A25U A39G, the self-cleavage worked out at 0.08.

Take G22U C23A G35U U43C G44A: the self-cleavage worked out at 0.09.

For the variant C23A G44C C45G, the self-cleavage came out at 0.05.

For G22U G29C G30A, the self-cleavage was determined as 0.68.

C23G U28C U34A: the self-cleavage came to 0.37.

Turning to G22U A25U G29C, the self-cleavage came out at 2.

As for G22U U38A G44A, the self-cleavage was 0.26.

G22C U32C G35A: the self-cleavage is 0.12.

Consider G22U A24U A41G, for which the self-cleavage is 0.13.

Consider C23G G33C A39C, for which the self-cleavage came to 0.03.

For C23A U38G U43A, the self-cleavage was determined as 0.01.

For C23G G27A G30A, the self-cleavage came to 0.68.

For G22U G40C C42A, the self-cleavage came to 0.17.

In the case of G22U G27U U32C G35C U43C, the self-cleavage was 0.08.

Regarding G22C U28C C31A G33A G35U, the self-cleavage amounted to 0.08.

In the case of G22U C23G G29A A39U, the self-cleavage was determined as 0.28.

Consider C23G G30U G36A, for which the self-cleavage was determined as 0.1.

Consider G22U G27U A39U, for which the self-cleavage stood at 0.66.

For the variant G22U A26C C42G, the self-cleavage is 0.09.

Take C23G G29A U32A C37U: the self-cleavage came out at 0.02.

Take G22C A25G U32A A41C U43G: the self-cleavage amounted to 0.01.

For G22C G33C G35C G40C, the self-cleavage came out at 0.02.

Regarding G22U U34G C45U, the self-cleavage was 0.21.

Regarding G22U U34G C45A, the self-cleavage was found to be 0.19.

Consider C23G A39U G40A, for which the self-cleavage was 0.06.

As for G22C G29A U38C, the self-cleavage worked out at 0.34.

With C23G G35A C45G, the self-cleavage is 0.82.

As for C23A G29A C42A, the self-cleavage worked out at 0.18.

As to C23A G29A C42U, the self-cleavage was found to be 0.74.

Turning to C23U A25G G33C G36C G44C, the self-cleavage is 0.01.

As to C23A A26C A39G, the self-cleavage was 0.07.

For the variant C23A U38C G40C, the self-cleavage is 0.02.

Regarding G22C G36A G44U, the self-cleavage was found to be 0.1.

As to C23G G33A A39C G40A G44A C46U, the self-cleavage worked out at 0.04.

Regarding G22C A26U G35A, the self-cleavage was found to be 0.12.

As for C23U A24G C31U G35A, the self-cleavage is 0.02.

Turning to C23A A39U G40C C42G U43C, the self-cleavage came out at 0.01.

On to C23A G27A G30U, for which the self-cleavage was 2.69.

In the case of C23U C31U G36A A41U, the self-cleavage worked out at 0.12.

On to C23A C31A C45U, for which the self-cleavage was 0.22.

G22C C37A G44U: the self-cleavage was found to be 0.04.

In the case of C23G G27A U38A, the self-cleavage was 0.21.

G22U G27C G35U G44C: the self-cleavage came out at 0.07.

Take C23G U32G C42U: the self-cleavage was found to be 0.04.

C23U C31G G35A C45U: the self-cleavage came out at 0.07.

Turning to C23A U28A G29A U34C A41U, the self-cleavage is 0.3.

For G22C U38A A39G, the self-cleavage is 0.12.

In the case of G22U A26G G44C, the self-cleavage amounted to 0.12.

Turning to G22U A41U G44A, the self-cleavage is 0.14.

G22C A26C C31A G35C C42U: the self-cleavage worked out at 0.07.

With G22U G30C G36U, the self-cleavage worked out at 0.04.

For G22U C31U A41C G44U, the self-cleavage is 0.05.

With C23G A41G C46A, the self-cleavage stood at 0.12.

As to C23G U28C C31U, the self-cleavage worked out at 0.1.

As to C23U A26G A41C, the self-cleavage stood at 0.04.

Regarding C23A G36C A41U, the self-cleavage is 0.23.

In the case of C23G A26G G29C, the self-cleavage came to 0.08.

Regarding C23A U28G G30U, the self-cleavage stood at 0.27.

On to G22C G33C G40A, for which the self-cleavage is 0.01.

On to G22C C42A G44C, for which the self-cleavage stood at 0.02.

Consider G22U G30U G36U, for which the self-cleavage was 0.03.

Regarding G22C C23U G35U G44A, the self-cleavage stood at 0.1.

With G22U G33A A41C C45G, the self-cleavage was determined as 0.08.

Turning to G22U C45G C46U, the self-cleavage turned out to be 1.16.

Regarding G22U C23U G36C, the self-cleavage was found to be 0.07.

As to C23G A24C G36A, the self-cleavage amounted to 0.09.

G22U U34C C37U C46G: the self-cleavage worked out at 0.09.

Turning to G22U A24C G27U G29U U38C, the self-cleavage came out at 0.34.

Turning to G22U C31G U38A G44A, the self-cleavage worked out at 0.02.

In the case of G22U G29C C46A, the self-cleavage came out at 1.22.

C23G G35A G36A G44A C45G: the self-cleavage was 0.13.

Turning to G22C U28C G33U, the self-cleavage came out at 0.08.

As for G22C G27C G33C, the self-cleavage came to 0.03.

For the variant C23A A25C C45A C46U, the self-cleavage was 0.07.

On to C23G A24G A25U U32A, for which the self-cleavage was found to be 0.02.

As for C23U A24C G30A C31U G35C C42G C46U, the self-cleavage amounted to 0.01.

In the case of G22U U28C C45G, the self-cleavage came to 1.69.

For the variant G22U G30A C31U, the self-cleavage worked out at 0.07.

With C23G G33U C46U, the self-cleavage is 0.08.

With C23G U28C G33A, the self-cleavage is 0.08.

On to C23A G35A C37U G40U, for which the self-cleavage was 0.08.

Turning to C23G G35C C45G, the self-cleavage came to 0.05.

Turning to C23G A24C C31U C46G, the self-cleavage stood at 0.01.

For C23G A25C G29C U34C G35U, the self-cleavage is 0.02.

For C23G C31U U32G C46A, the self-cleavage was found to be 0.02.

Consider G22U U28A C37U A41U, for which the self-cleavage worked out at 0.04.

In the case of C23A U34G A41C C46U, the self-cleavage was 0.02.

For C23A C31A G44U C45A, the self-cleavage was found to be 0.22.

Turning to G22C G30A G33C C45U, the self-cleavage came to 0.06.

As to G22U G33A C42G, the self-cleavage turned out to be 0.85.

For the variant C23G G33U G40U, the self-cleavage was found to be 0.23.

As to C23A A24C G44U, the self-cleavage stood at 0.22.

For the variant G22C C23G A25C, the self-cleavage turned out to be 1.

With G22U G36U A41C, the self-cleavage is 0.02.

For G22U G36C G40A U43G, the self-cleavage is 0.07.

Regarding G22U C37A C46A, the self-cleavage worked out at 0.01.

G22U C23A A26G: the self-cleavage was found to be 0.61.

On to G22U C23A A26C, for which the self-cleavage was determined as 1.1.

C23A A39C G44U: the self-cleavage came to 0.06.

Turning to G22C C23A A26U, the self-cleavage stood at 0.38.

Regarding C23U A26U U38A G40U, the self-cleavage was determined as 0.1.

On to G22U G27U C42U, for which the self-cleavage came to 0.19.

As for G22U G27U G29A U34A, the self-cleavage turned out to be 0.31.

In the case of G22U U32G U43A, the self-cleavage came out at 0.06.

With C23G G30A C31U, the self-cleavage is 0.05.

For the variant C23U A26U C31G C45U, the self-cleavage was found to be 0.16.

With G22C A26U C42U, the self-cleavage turned out to be 0.03.

Consider G22C G27A G33U C37U C46A, for which the self-cleavage stood at 0.14.

Turning to C23G G33A G40U, the self-cleavage is 0.03.

Consider C23A G27C C31A G35U, for which the self-cleavage was 0.01.

Regarding G22C C23U G33A, the self-cleavage came to 0.41.

As for C23A A39U C46U, the self-cleavage was found to be 0.1.

Take G22U C23U U43C: the self-cleavage turned out to be 0.17.

For the variant C23U A39G G40C C42G, the self-cleavage turned out to be 0.01.

On to G22U G35U A41G, for which the self-cleavage was 0.21.

For the variant G22U G36C G44A, the self-cleavage was 0.06.

In the case of C23G A24G G30C U32G G33A C37A A39C C42A, the self-cleavage was determined as 0.04.

With C23A U28G U32A, the self-cleavage was found to be 0.08.

C23A A39G A41U: the self-cleavage was 0.08.

Regarding C23A G29C C37G U43A, the self-cleavage worked out at 0.01.

Consider C23G G29C C31U, for which the self-cleavage worked out at 0.3.

Turning to C23A G30U U32C U38A, the self-cleavage is 0.67.

In the case of C23A G33A C45G, the self-cleavage is 0.04.

Take C23A A25C G30U G36U: the self-cleavage was determined as 0.

Take C23G G27U U28A C37U: the self-cleavage turned out to be 0.02.

Consider C23A A25U C42A, for which the self-cleavage was 1.46.

In the case of C23A G40U C42A, the self-cleavage turned out to be 0.06.

Turning to G22U C31U G36A, the self-cleavage is 0.23.

Take C23G A25U C42U: the self-cleavage was 0.74.

Take C23A A25U G33U: the self-cleavage is 0.2.

Consider G22U U32A G36A, for which the self-cleavage is 0.02.

On to C23A U43G C45A, for which the self-cleavage came out at 0.04.

In the case of C23U A25U U34A, the self-cleavage stood at 0.05.

On to G22U U28G C45A, for which the self-cleavage is 0.11.

As to G22C G36C U43A, the self-cleavage was 0.03.

On to G22C C42G C45U, for which the self-cleavage worked out at 0.03.

For the variant C23G G29C G33A G36U, the self-cleavage came out at 0.06.

On to C23A G33C G44A, for which the self-cleavage amounted to 0.02.

On to C23A G36C C42U, for which the self-cleavage was found to be 0.44.

As to G22C G29C A39G, the self-cleavage came to 0.08.

For C23A U43A C46A, the self-cleavage stood at 0.2.

As to C23A G33U G36U G40C, the self-cleavage is 0.01.

In the case of C23G G27C C42U, the self-cleavage was 0.16.

For G22U C42U U43A, the self-cleavage is 0.1.

On to G22U C42U U43G, for which the self-cleavage stood at 0.06.

Turning to C23G A41U C42A, the self-cleavage was determined as 0.13.

Regarding G22C G27U C42A, the self-cleavage stood at 0.04.
